This is one part of the list. At the low end of the ranking the order means little. The protein was read in a cell extract, so binding may be indirect.
Each sequence was assayed against T1, HNF4alpha8 (COS-7 nuclear extract) (UniProt P41235-5) (assay: protein-binding microarray). Conditions: COS-7 nuclear extract on double-stranded Agilent 4x180k PBM; binding buffer, salt, pH and temperature not given; high values mean tight binding; double strand, one strand shown; sequences stand for … in …GCCTAGGGAGATTAGAGTATCGGTCGA.
T1 sequence: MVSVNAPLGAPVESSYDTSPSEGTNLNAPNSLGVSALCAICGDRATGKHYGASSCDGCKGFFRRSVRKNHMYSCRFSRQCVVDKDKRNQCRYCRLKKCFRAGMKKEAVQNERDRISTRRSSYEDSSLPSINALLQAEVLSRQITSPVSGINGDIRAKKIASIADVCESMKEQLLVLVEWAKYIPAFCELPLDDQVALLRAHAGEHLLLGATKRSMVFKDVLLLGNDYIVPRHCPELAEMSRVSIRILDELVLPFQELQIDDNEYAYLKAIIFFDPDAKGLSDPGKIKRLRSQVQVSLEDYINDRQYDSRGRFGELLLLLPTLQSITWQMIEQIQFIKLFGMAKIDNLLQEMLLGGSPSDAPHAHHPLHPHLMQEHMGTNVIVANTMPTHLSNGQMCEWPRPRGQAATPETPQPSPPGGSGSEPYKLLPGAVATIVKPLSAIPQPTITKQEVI

Sequence | binding signal (log2 normalized intensity)
CTGGATGCCCAGGGATTCCTGAAGATCGCA | -1.35
ATTCGTCCAGGGCCGCCCAAGCGAATATGT | -1.38
GGTGAGGGGAGCGTAAAACCACTGGCCCAT | -1.32
GCTGGACGCTGGTCAGCATCCTGCTTGTGA | -1.06
TTGCATAGGCATTGTCTTGAAAGATAAAGT | 0.475
GTAATAAGCAGTAGACTAAAACCCATATCT | -1.23
AGCAGCAGGGTCAGAAGGGAGGTAGTCGCC | -1.29
GGAGGGTCTTGCTTTGATGTTGATGGTTGC | 1.83
TAAGTTGAAGTGAGTTGTTTGTTTTGAGAT | 1.17
AGTAGGATAAGTCCTTCCAAAGTCCTTCTA | 3.04
GGGGGGAAGCTCTGTCACTTCTGGTTACCA | -1.36
CCCAGTGTCTCTGGGCGCTGGGAAGACAGT | -1.28
TAAACCACCCAATCCTGCAGCATTCCCTAC | -1.29
TGCATTAAAGTCACAAAGGTGGAACTCAAG | 0.899
CACAAAGGGTTATGGGAAGTGGGGTAAGCA | -0.624
TGGGCTTCAGACATTGCAAATCTCTTCTTC | -1.22
TCTGTCTCATTCCCTGACAGACCCCTCCTA | 4.36
CATCGAGGCCATCCCAGTTACTCAGCGAAT | -1.35
TCTTGTTTCAGAGTAAATACGAACCGTCGT | 1.2
GTGTGTGTGTGTGTGTGTGTATGCCATGCT | 1.92

Sequence | binding signal (log2 normalized intensity)
CGCCACTGCATTCCAGCCTGGGGCAATAGA | -1.27
GGAAATCCGAAATAAACTGAGGGGTGGGGA | -1.35
GTCCAAGGACTTATCCTTGGGACATTCTCA | -1.1
ATGACACCCATCATGAGTAGGTTTACTAAA | -0.916
TTAGGACAACATGAGTAAACGAGCTATTTA | -1.27
GGAAGGGATGGGGTGCAAACTCACCTGGAG | -1.4
TGGCCAAAGGGCACAAGAGGAATTGTTCAA | 1.68
CGCTGCCTCCCACCCCCACGGTGCGCTGCC | 4.26
TTTATTCACTTCTCAAAGGACAGATCAATG | 1.26
GAGATGAAAGGGGCCTCAGAGAAAGCCTGT | -1.48
CAGGCAGATTTGACCTACGGACCATGGATC | 4.04
TCAGAAACAGGAATTCAAAGGTGCAAAGGT | 2.84
CTTTTTCTTCTGGGGACGCCCACTGCTTTG | -1.13
GCAGCACCTTGATGCTGGACTTCAGCCTCC | 5.78
GACCAGTCTGCCTGACTCCAGAGTCCAAAC | 4.23
GGGCAGCGCGGCGCGCTGGGAAGGCTCGTT | -1.3
CTATAAAACAGGAAAAAGGGACAAAACTTC | -1.34
CGTGGTTGATCAAAGGTTGGACTGAGGACC | 3.73
TACACAAAAGAGCTTTGAGTCTGGTGTTTC | 0.112
AAATCTTAGAGAACACTCCTCCCCTTTTCT | 2.49

Source: PMC10726135
